Measurements as given in a compilation of properties of binary mixtures (doi:10.1021/je300932n).
The densities may have been worked out from excess volumes.

Assay: xn = mol fraction of the nth substance listed
Details: 101 kPa

CCCC[n+]1ccn(C)c1.N[C@@H](CC(=O)O)C(=O)[O-] + CO
mass density [kg/m3]
Details	x2 = 0.1001	x2 = 0.1999	x2 = 0.2999	x2 = 0.398	x2 = 0.5015	x2 = 0.5949	x2 = 0.6969	x2 = 0.7957	x2 = 0.8988
298.15 K	1174	1173	–	1158	–	1145	1075	–	–
303.15 K	1170	–	1159	1153	1148	–	–	1029	966
308.15 K	1163	1162	1156	–	1144	1137	–	1026	962
318.15 K	1157	–	1149	1145	–	1130	1065	–	–
